# Data reported in the supplement of paper PMC3334620.
# Over roughly 33,000 sequences, “E-score (-0.5 to 0.5)” has its median near -0.016; the highest 2% begin near 0.32. The list shows a part of the results.
# Molecular target: T1, Stp1 (UniProt B3LFK1)
# T1 sequence: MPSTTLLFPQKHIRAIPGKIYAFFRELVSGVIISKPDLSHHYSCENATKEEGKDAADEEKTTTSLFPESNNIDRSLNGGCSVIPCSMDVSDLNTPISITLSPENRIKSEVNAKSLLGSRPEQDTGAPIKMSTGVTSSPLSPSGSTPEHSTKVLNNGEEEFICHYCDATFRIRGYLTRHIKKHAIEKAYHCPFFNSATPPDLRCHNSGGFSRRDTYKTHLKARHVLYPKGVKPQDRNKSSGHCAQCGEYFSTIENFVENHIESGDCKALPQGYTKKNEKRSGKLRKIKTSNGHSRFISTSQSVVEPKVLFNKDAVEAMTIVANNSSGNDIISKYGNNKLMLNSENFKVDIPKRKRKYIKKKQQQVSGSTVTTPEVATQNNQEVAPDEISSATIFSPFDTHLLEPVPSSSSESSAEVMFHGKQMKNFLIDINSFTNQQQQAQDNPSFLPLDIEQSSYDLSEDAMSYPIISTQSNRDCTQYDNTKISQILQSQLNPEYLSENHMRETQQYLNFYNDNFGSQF
# Test: PBM E-score (8-mer binding enrichment) (E-score (-0.5 to 0.5)); higher = stronger / more preferred TF binding; most listed sequences are background and not binding sites
# Settings: protein concentration: 200 nM; construct: GST-full length
# Outline: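 The E-score, a modified Wilcoxon-Mann-Whitney statistic, was computed by the Universal PBM Analysis Suite for every ungapped eight-base word pooled with its reverse complement. Scans behind it were normalised with masliner after bound GST-tagged yeast transcription factors were detected with fluorescent anti-GST. The proteins, at about 100-200 nM, had been applied to universal all-10-mer Agilent arrays made double-stranded by primer extension.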
row,Sequence,PBM E-score
1,CAGTCCGA,-0.112
2,AATAGACG,0.144
3,ATTGTGAG,-0.00101
4,ACGCCAAT,0.072
5,CCTCGCAG,-0.0486
6,ACGTCATA,0.0696
7,CCTATAGC,-0.147
8,AGCATACG,-0.0138
9,ATCCCACG,-0.209
10,CTTAGGTC,-0.175
11,AACTGCCA,0.0646
12,AGCGCATA,-0.099
13,CCTTCGGA,-0.147
14,CGCTCAGA,-0.108
15,CTCACTAA,0.0486
16,ACCATCAA,-0.149
17,CCGTCAGC,-0.133
18,GCCAGATA,0.0195
19,CTAATATC,-0.0373
20,AACGGTCA,0.0522
21,GCAGGGCC,0.00028
22,CATGGGAC,-0.173

row,Sequence,PBM E-score
1,CGACTTTC,-0.0611
2,GCACAGTA,0.186
3,AATACCGG,-0.2
4,CGCAAGAA,0.144
5,CCGAGACG,-0.0759
6,AACTGCCG,0.329
7,GCAAGAAA,0.0932
8,ATCGTATC,-0.166
9,TAAAGCTA,0.0639
10,AGTGCCCA,0.0772
11,CGCCGCTA,0.299
12,AGTCCTTG,-0.0837
13,GGACGGAC,-0.0965
14,GATGGCAA,0.166
15,AACTTACG,0.154
16,CAGGAAAC,0.0237
17,GTACTATA,0.17
18,CCGAGACC,-0.127
19,TTAATCAA,0.171
20,GAACCGAA,0.152
21,GGGAAACC,-0.108
22,AAATCCGG,-0.0958

row,Sequence,PBM E-score
1,CAAAAGCA,-0.034
2,AGCGAAGC,0.0148
3,GTGAAAAC,0.0563
4,CATCACCC,-0.127
5,GGAGCAAC,-0.177
6,ACAGCGCT,0.0298
7,AAGTTGAC,0.06
8,ACCAACCT,-0.0781
9,CTAAACAA,-0.015
10,ATCCCCCG,-0.294
11,CGTTAATC,0.238
12,CGAGGGGA,-0.223
13,GGTGATAA,-0.105
14,AGGTAAAT,0.0437
15,CGGGGCTC,-0.169
16,TAGCACTA,-0.0614
17,ACAGTCTA,-0.00216
18,CCACTTGA,0.0126
19,GGGAATAC,-0.0243
20,GGATGCCA,-0.0764
21,GGTCAGTA,-0.0339
22,GCTATTAC,0.0321

row,Sequence,PBM E-score
1,ACTTGAAG,0.119
2,CGTGCCGC,0.475
3,ACACTGAG,-0.14
4,ATTCATCG,0.108
5,ATCTCTGA,-0.0536
6,CCTAACCG,-0.151
7,GCTCTTCC,-0.228
8,AAACCGAC,0.024
9,CAAAACGG,0.308
10,ATCAAGCC,0.0655
11,AAAGTGGT,-0.0258
12,ACACATAC,-0.0529
13,TCATAAAA,0.075
14,AAGCCCTC,-0.348
15,CCGCGGGC,0.215
16,CTAAATGA,0.0316
17,AGCGGTTC,-0.146
18,ACACCTAA,0.0137
19,ACGGAATG,0.0305
20,GGACTGAA,-0.104
